Among all 420,000 compounds or so, about 50,000 (12%) were called active. This list was built around the results that the source calls inconclusive (neither active nor inactive); the mix of calls is not that of the screen. The call rests on the fitted dose curve; in most records, active means well fitted inhibition curve with a large enough effect; inconclusive means small, poorly fitted or top-dose-only effect; inactive means flat fitted curve, though single readings scatter. Potencies of inconclusive entries are left out as doubtful fits.
Test: qHTS for Inhibitors of human tyrosyl-DNA phosphodiesterase 1 (TDP1): qHTS in cells in presence of CPT; further: nearly all actives have a fitted effect of over 55% in size
Conditions: chicken DT40 Tdp1-/-;hTDP1 cells + 20 nM CPT, ATP luminescence, 48 h; activity change, negative = growth inhibition: at 46.2 µM (top of the series) unless noted
Outline: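 Chicken DT40 Tdp1-/- cells stably complemented with human TDP1 were seeded at 400 cells/well in medium containing 20 nM camptothecin, exposed to pin-transferred compounds, and grown at 37 °C for at least 48 hr. Viability was read as ATP luminescence.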
On the % scale 0 is the no-effect control and ±100 the full control effect; potency means the concentration at half of the fitted maximal effect; tags describe the fitted curve by direction and shape.

Row | SMILES | activity change, negative = growth inhibition | Potency
1 | COc1ccc(CCN(C)Cc2cc(-c3cncnc3)ccc2O)cc1OC | inactive: 0.407% [at 9.04 µM] | 
2 | CCCOc1ccc(C2C(=O)N(C3CCCCCC3)CC(=O)N2CCCOCC)cc1OC (stereo unspecified) |  | inconclusive [inhibitor, single point]
3 | Cc1c(Cl)cccc1NC(=O)CNC(=O)Cc1n[nH]c(=O)c2ccccc12 |  | inconclusive [inhibitor, partial curve]
4 | CCOC(=O)c1[nH]c(=O)[nH]c1CN(Cc1ccco1)Cc1[nH]c(=O)[nH]c1C(=O)OCC | inactive: 2.05% | 
5 | Cc1cc(C(=O)CS(=O)(=O)c2ccc(Cl)cc2)cc(C)c1O | inactive: 0.491% | 
6 | O=C(COC(=O)CCC1CCCC1)Nc1ccc(F)cc1Cl | inactive: -10.4% | 
7 | Cc1ccc(OCCCCNC(C)(C)C)c([N+](=O)[O-])c1 |  | inconclusive [inhibitor, single point]
8 | Cc1ccc(Cn2c(SCC(=O)N3CC(=O)Nc4ccccc43)nc3ccccc3c2=O)cc1 |  | inconclusive [inhibitor, single point]
9 | Cn1c(SCC(=O)c2ccc3c(c2)Cc2ccccc2-3)nnc1-c1cccc(N)c1 |  | inconclusive [inhibitor, single point]
10 | CCOC(=O)c1c(C)[nH]c(C(=O)COC(=O)COc2ccccc2C)c1C | inactive: 2.66% | 
11 | O=C(Nc1nnc(C(F)(F)F)s1)C1COc2ccccc2O1 (stereo unspecified) |  | inconclusive [inhibitor, single point]
12 | COc1cc(NC(=O)CNc2cccc(S(=O)(=O)N3CCOCC3)c2)cc(OC)c1 |  | inconclusive [inhibitor, single point]
13 | CCOc1ccccc1N1CC(c2nc3ccccc3n2CCOc2ccc(C(C)(C)C)cc2)CC1=O (stereo unspecified) |  | inconclusive [inhibitor, single point]
14 | CC(=O)c1cccc(NC(=O)CNC(=O)c2sc3ccccc3c2Cl)c1 |  | inconclusive [inhibitor, single point]
15 | O=C(C1=C[C@H](c2ccc3c(c2)OCO3)C[C@H](OCCCCO)O1)N1CCOCC1 |  | inconclusive [inhibitor, partial curve]
16 | Cc1ccc(OCc2n[nH]c(=S)n2C2CCCCC2)cc1 |  | active: 29.1 µM
17 | CCN(c1cc(C)cc(C)c1)S(=O)(=O)c1nnc(NC(=O)c2cccc(F)c2)s1 |  | active: 11.6 µM
18 | Cc1onc(-c2c(F)cccc2Cl)c1C(=O)NCc1ccc(F)cc1 | inactive: -18.7% | 
19 | COc1cccc(C(C)(O)c2nc(-c3ccc(C)c(C)c3)cs2)c1 (stereo unspecified) |  | inconclusive [inhibitor, partial curve, poor fit]
20 | COc1ccc(CNC(=S)Nc2ccc(Br)cc2)cc1 |  | inconclusive [inhibitor, single point]
21 | CCN(c1ccc(OC)cc1)c1ncnc2nc[nH]c12 |  | inconclusive [inhibitor, partial curve]
22 | Cc1cccc(C2C3=C(CCCC3=O)N=C3c4ccccc4C(=O)C32)c1 (stereo unspecified) |  | inconclusive [inhibitor, single point]
23 | O=S(=O)(c1ccccc1)c1nc(-c2ccco2)oc1NCc1ccco1 |  | inconclusive [inhibitor, partial curve]
24 | COc1ccc(-c2noc(-c3csc([C@@H]4C[C@H](O)[C@@H](CO)O4)n3)n2)cc1OC |  | inconclusive [inhibitor, partial curve]

Row | SMILES | activity change, negative = growth inhibition | Potency
25 | O=C(NCCOc1ccccc1)C1CCC(=O)N(Cc2ccc(Cl)cc2)C1 (stereo unspecified) | inactive: -9.74% | 
26 | CCOC(=O)c1c2c(n(Cc3ccccc3)c1C)C(=O)C(=O)c1ccccc1-2 |  | active: 0.58 µM
27 | COc1ccc(OC)c(N/C(C)=C/C(=O)c2ccccc2)c1 |  | inconclusive [inhibitor, partial curve]
28 | Nc1ccc(S(=O)(=O)Nc2nccc(/C=C/c3ccc(Br)s3)n2)cc1 |  | inconclusive [inhibitor, single point]
29 | CCOc1ccc(CNn2cnnc2)cc1 |  | active: 16.4 µM
30 | O=[N+]([O-])c1ccc(Nc2c3ccccc3nc3ccccc23)cc1 |  | inconclusive [inhibitor, single point]
31 | COC(=O)c1c(NC(=O)Cc2ccc(OC)c(S(=O)(=O)N3CCOCC3)c2)sc(C)c1C |  | inconclusive [inhibitor, single point]
32 | COc1cccc(-c2cncnc2Nc2ccc(F)cc2)c1 | inactive: -27% | 
33 | O=S(=O)(c1ccccc1C(F)(F)F)N1CCN(S(=O)(=O)c2ccccc2C(F)(F)F)CC1 |  | inconclusive [inhibitor, single point]
34 | Clc1ccc(OCCOCCN2CCCCC2)c(Br)c1 | inactive: -3.52% | 
35 | CSc1cccc(NC(=O)/C=C/c2cccc(Cl)c2)c1 |  | inconclusive [inhibitor, single point]
36 | CSCCC(NC(=O)c1ccco1)C(=O)OCC(=O)N(Cc1ccccc1)C(C)(C)C (stereo unspecified) |  | inconclusive [inhibitor, single point]
37 | COCCNCC(O)CON=C1c2ccccc2-c2ccccc21 (stereo unspecified) |  | inconclusive [inhibitor, single point]
38 | CCOC(=O)c1ccc(NC(=O)c2ccc(CN3CCc4ccccc4C3)cc2)cc1 |  | inconclusive [inhibitor, partial curve]
39 | CCOC(=O)C1=C(NC#N)OC(C)=C(C)C1c1ccc(O)cc1 (stereo unspecified) |  | active: 23.1 µM
40 | Cn1ncc(C#N)c1/N=C/N1CCCCC1 |  | inconclusive [inhibitor, partial curve]
41 | CCOc1ccc(S(=O)(=O)N2CCCCC2)cc1NC(=O)CN1C(=O)NC(CC)(c2ccccc2)C1=O (stereo unspecified) |  | inconclusive [inhibitor, single point]
42 | COc1cc(NC(=O)N2CCN(c3cc(-c4noc(C)n4)ccc3C)CC2)cc(OC)c1OC | inactive: -2.76% | 
43 | CCOc1ccc2nc(NC(=O)c3ccc(S(=O)(=O)N4CCOCC4)cc3)sc2c1 | inactive: -0.0416% | 
44 | CC(C)Cc1ccc([C@H](C)C(=O)O)cc1 |  | inactive
45 | O=C1CNC(=O)/C(=C/c2cccs2)N1 | inactive: 0.856% | 
46 | COc1ccc(-c2nc(SCC(=O)NC3CCCCC3)n[nH]2)cc1 |  | inconclusive [inhibitor, single point]
47 | COC(=O)c1cc2ccccc2n1S(=O)(=O)c1ccccc1 | inactive: 10% | 
48 | CCN(CC)C(=O)CC(c1cc(OC)c(OC)c(OC)c1)c1c(OC)cc(OC)c2ccc(=O)oc12 (stereo unspecified) |  | inconclusive [inhibitor, single point]

Row | SMILES | activity change, negative = growth inhibition | Potency
49 | ClCc1nnc(-c2cc3c(s2)CCCC3)o1 |  | active: 10.3 µM
50 | CCc1cc2c3c(c(=O)oc2cc1O)CCCC3 |  | inconclusive [inhibitor, partial curve]
51 | COc1ccc(NC(=O)NNC(=O)c2ccc3ccccc3c2)cc1OC | inactive: 0.243% | 
52 | Cc1cccnc1C(NC(=O)C1CCN(CCCOc2ccccc2)CC1)c1ccc(F)cc1 (stereo unspecified) |  | inconclusive [inhibitor, partial curve, poor fit]
53 | Cc1ccc(S(=O)(=O)N2CCN(C(=O)c3cc(=O)c4ccccc4o3)CC2)cc1 |  | inconclusive [inhibitor, single point]
54 | O=C(Nc1cccnc1)Nc1ccc(Cl)cc1Cl |  | inconclusive [inhibitor, single point]
55 | Cc1ccc(-c2ccc(CCC(=O)O)n2-c2ccc(C(C)C)cc2)cc1 | inconclusive: -30.4% [inhibitor] | 
56 | CC(=O)c1ccc(OCCCCOc2ccc(C(C)=O)cc2)cc1 | inactive: -21.6% | 
57 | C=CCOC(=O)C1=C(C)N=C2SCCC(=O)N2C1/C=C/c1ccccc1 (stereo unspecified) |  | inconclusive [inhibitor, single point]
58 | CCN(c1ccc(C)cc1)S(=O)(=O)c1nnc(NC(=O)c2cccs2)s1 |  | inconclusive [inhibitor, single point]
59 | CC(C)c1ccccc1NC(=O)CSc1nnc(COc2ccccc2Cl)o1 |  | inconclusive [inhibitor, single point]
60 | O=C(O)CCCN1C(=O)C(=O)/C(=C(/O)c2ccccc2)C1/C=C/c1ccccc1 (stereo unspecified) |  | inconclusive [inhibitor, single point]
61 | CCOC(=O)CN(C(=O)CSc1nnc2c(n1)[nH]c1ccc(OC)cc12)c1ccc(F)cc1 |  | active: 20.6 µM
62 | COc1cccc(NC(=O)Cc2csc(NC(=O)Nc3ccccc3OC)n2)c1 |  | inconclusive [inhibitor, single point]
63 | CC(C)c1ccc(/C=C2\SC(=S)N(CC(=O)NCCCN3CCOCC3)C2=O)cc1 |  | inconclusive [inhibitor, single point]
64 | CC(Oc1ccccc1)C(=O)N1CCC2(CC1)CC(=O)c1ccccc1O2 (stereo unspecified) |  | inconclusive [inhibitor, single point]
65 | O=C(Nc1ccccc1C(=O)NCC1CCCO1)c1ccccc1F (stereo unspecified) | inactive: 6.83% | 
66 | CCOC(=O)c1c(C)nn(-c2ncccc2NC(=O)NC(C)C)c1C | inactive: 20.4% | 
67 | COc1ccccc1-c1sc2ccccc2c1-c1ccccc1OC |  | inconclusive [inhibitor, single point]
68 | CCN(CC(=O)NCc1ccc(Cl)cc1)C(=O)c1ccc2cc(OC)ccc2c1 |  | inconclusive [inhibitor, single point]
69 | O=C(NCCCl)Nc1cccnc1Cl | inactive: 5.54% | 
70 | O=C(C(Cl)Cl)N1CCN(Cc2ccccc2)CC1 | inconclusive: -30.9% [inhibitor] | 
71 | O=C(C1c2ccccc2Oc2ccccc21)N1CCN(c2ccc(Cl)cc2)CC1 |  | inconclusive [inhibitor, single point]
